PubChem BioAssay AID488969 (Vanderbilt High Throughput Screening Facility, 2010)
Whole data set: some 110,000 compounds, median “z-score” near -0.1, cut for the highest 2% near 2. The list shows a part of the results.

biological target: Metabotropic glutamate receptor 8 (Rattus norvegicus) (UniProt P70579); assay: mGluR8 Gi/Go-coupled signaling modulation – cell-based, rat, thallium flux, HTS, primary screen (AID 488969); conditions: HEK293 rat mGluR8, GIRK (G protein-gated inwardly rectifying potassium channel) thallium flux, FluoZin2; at 10 µM; stronger effect = higher value; submaximal glutamate (EC20) added with thallium
Sequence of UniProt P70579 (P70579 whole entry, looked up): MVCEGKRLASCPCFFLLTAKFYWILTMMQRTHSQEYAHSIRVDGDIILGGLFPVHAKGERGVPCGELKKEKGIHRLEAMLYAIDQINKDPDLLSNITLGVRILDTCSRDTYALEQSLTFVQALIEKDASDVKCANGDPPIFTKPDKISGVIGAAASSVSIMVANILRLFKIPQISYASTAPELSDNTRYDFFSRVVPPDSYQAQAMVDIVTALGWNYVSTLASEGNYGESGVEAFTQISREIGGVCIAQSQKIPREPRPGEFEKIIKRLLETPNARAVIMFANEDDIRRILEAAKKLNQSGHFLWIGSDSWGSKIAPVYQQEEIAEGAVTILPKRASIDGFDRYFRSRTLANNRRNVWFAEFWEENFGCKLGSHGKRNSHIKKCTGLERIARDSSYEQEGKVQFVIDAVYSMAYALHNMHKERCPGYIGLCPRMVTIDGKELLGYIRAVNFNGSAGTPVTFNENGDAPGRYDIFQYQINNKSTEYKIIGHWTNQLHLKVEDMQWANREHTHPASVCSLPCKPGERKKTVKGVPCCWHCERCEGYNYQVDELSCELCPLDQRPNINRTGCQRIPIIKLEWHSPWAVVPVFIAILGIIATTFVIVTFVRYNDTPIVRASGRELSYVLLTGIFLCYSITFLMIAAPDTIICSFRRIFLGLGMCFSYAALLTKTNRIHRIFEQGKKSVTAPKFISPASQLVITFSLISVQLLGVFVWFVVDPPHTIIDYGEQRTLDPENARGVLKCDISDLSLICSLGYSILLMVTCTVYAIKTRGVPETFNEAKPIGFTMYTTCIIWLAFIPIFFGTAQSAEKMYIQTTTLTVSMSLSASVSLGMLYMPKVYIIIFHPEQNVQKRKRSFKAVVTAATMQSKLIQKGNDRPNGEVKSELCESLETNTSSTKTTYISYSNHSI

Compound | z-score
CCCCCCC(c1c(C)n(C)n(-c2ccccc2)c1=O)c1c(C)n(C)n(-c2ccccc2)c1=O | -1.19
COc1ccccc1NC(=O)C1=C(C)NC(SCC(=O)c2ccccc2)=C(C#N)C1c1ccco1 (centres undefined) | 0.838
CCC(c1nnnn1Cc1ccco1)N(CCc1ccccc1)Cc1cc2cccc(C)c2[nH]c1=O (centres undefined) | 0.382
COc1ccc(Cl)cc1S(=O)(=O)N1CCN(C(=O)c2cc(OC)c(OC)c(OC)c2)CC1 | 0.0484
O=C(c1ccc(Cl)cc1)c1cnc(-c2ccccc2)s1 | -0.129
CN(Cc1ccccc1)C(=O)CN(c1ccc(F)cc1)S(=O)(=O)c1ccc2c(c1)OCCO2 | -0.317
O=C(Nc1ccccc1)N1CC=C(c2ccccc2)CC1 | 0.288
CC(=O)NCc1c(Cl)cccc1-n1cccc1 | 0.18
COc1ccccc1N1CCN(S(=O)(=O)c2ccccc2)CC1 | -0.0523
COc1ccc(S(=O)(=O)N(CC(=O)Nc2ccc(S(=O)(=O)N3CCOCC3)cc2)Cc2ccc(F)cc2)cc1 | -0.0915
CCOC(=O)NCc1ccc(S(=O)(=O)Nc2c(C)cccc2C)cc1 | 0.515
O=C(CCCc1ccccc1)NCc1ccc(F)cc1 | 0.138
COc1ccc(CC(=O)NC(C)c2nnc(SCc3nc4ccccc4c(=O)[nH]3)n2C)cc1 (centres undefined) | 0.542
C[C@H](NC(=O)c1ccccc1Cl)C(=O)OCC(=O)N1CC2(C)CC1CC(C)(C)C2 (some centres undefined) | 0.00588
c1cncc(-c2nc3ccccc3[nH]2)c1 | -0.186
Cc1cc(SCC(=O)OCC(=O)N2CCN(C(=O)c3ccco3)CC2)c(C)cc1Br | -0.417
COc1ccc(C(=O)C[n+]2ccc(C)cc2)cc1 | -0.262
O=C(Cn1nc(-c2ccccc2)ccc1=O)NCC1COCCO1 (centres undefined) | 0.993
O=C(c1cccc(Cl)c1Cl)N1CCN(c2ccccn2)CC1 | 0.285
COc1ccc(NC(=O)C23CC4CC(C2)CC(n2cnc(Br)n2)(C4)C3)c(C)c1 | 0.0432
O=C(c1ccco1)N1CCN(S(=O)(=O)Cc2ccc(Cl)cc2)CC1 | -0.261
CCOc1ccc(-n2cc(C(=O)N3CCN(C)CC3)c3cc(OC)c(OC)cc3c2=O)cc1 | -0.207
COc1cccc(Nc2nc(NCC3CCCO3)c3ccccc3n2)c1 (centres undefined) | 0.458

Compound | z-score
CN(Cc1ccccc1)Cc1c(F)cccc1F | 0.236
Cc1ccc(NS(=O)(=O)c2ccc(OCC(=O)N3CCOCC3)cc2)cc1 | 0.0793
CC(C)c1ccccc1N=C1SCCN1C1CCS(=O)(=O)C1 (centres undefined) | 0.193
C=CCN1C(=O)C(O)(CC(=O)c2ccc(-n3cccc3)cc2)c2ccccc21 (centres undefined) | 0.0333
Cc1ccc(-c2nc(-c3cccnc3)no2)cc1 | 0.348
CCCCC(=O)c1ccc(O)cc1 | 0.0642
COc1cccc2c(=O)n(CC(=O)N3CCN(c4ccccc4)CC3)ccc12 | -0.385
Cc1ccccc1-n1c(O)c(/C=C/C=Nc2ccccc2)c(=O)[nH]c1=O | 0.127
O=C(O)c1ccc(CSc2nnc(SCc3ccccc3)s2)cc1 | -0.1
COc1ccc(N2CCN(C(=O)c3ccc(N4C(=O)NC5CC4(C)Oc4ccccc45)cc3)CC2)cc1 (centres undefined) | 0.106
COc1ccc(-c2nc(CS(=O)CC(=O)NCC3CCCO3)c(C)o2)cc1 (centres undefined) | -0.042
COc1ccc(/C=C/C(=O)O)cc1COc1cccc(C)c1 | 0.0229
Cn1c(=O)c2c(nc(OCc3ccccc3)n2C)n(C)c1=O | -0.335
Cc1cc(S(=O)(=O)Nc2c(C(=O)O)[nH]c3ccccc23)ccc1F | -0.226
CCOC(=O)c1cc(CC)sc1NC(=O)c1cc(OC)c(OC)c(OC)c1 | 0.399
Cc1ccc2c(c1)N(C(=O)NC1CCCCC1)C(C)(C)CC2C (centres undefined) | 0.222
Cc1ccc([N+](=O)[O-])cc1-c1ccc(/C=N\n2nnnc2N)o1 | -0.0548
Cc1ccc(C(C(=O)NCc2ccco2)N(C(=O)CNC(=O)c2cccs2)c2c(C)cccc2C)cc1 (centres undefined) | 0.069
Cc1cccn2cc(-c3ccccc3)nc12 | 0.976
FC(F)(F)c1cccc(-c2nnc3ccc(C(F)(F)F)cn23)c1 | 0.312
COC(=O)c1cn(NC(=O)c2cccc(N(C)C)c2)c(=O)c2ccccc12 | -1.54
COCCNC(=O)Cn1ncc2ccsc2c1=O | 2.25
Cc1ccc(S(=O)(=O)N2CCC(O)(c3cccnc3)CC2)cc1 | -0.435

Compound | z-score
O=C(c1cccs1)N1CCCC(c2ccccc2)C1 (centres undefined) | -0.536
COc1ccc2nc(C(F)(F)C(F)(F)F)c(C#N)c(N)c2c1 | -0.334
Cc1ccc(C(=O)CSc2nnc(-c3ccccc3N)n2C)cc1C | -0.127
COc1cc2c(cc1NC(=O)COC(=O)C1CC(=O)N(Cc3ccco3)C1)oc1ccccc12 (centres undefined) | -1.09
CC(C)(C)C(=O)Nc1cccc(C(=O)Nc2cc(C(=O)O)cc(C(=O)O)c2)c1 | -0.111
CC1CN(C(=O)c2nn(C)cc2[N+](=O)[O-])CC(C)O1 (centres undefined) | -0.227
Cc1[nH]c2ccccc2c1C1C(c2ccccc2)=NN=C(C(C)C)N1O (centres undefined) | -0.181
COc1ccc(Cl)cc1NC(=O)CC(C)=O | 1.03
CCOC(=O)c1cc2c(ccn2C)n1CC(=O)N1CCN(c2cccc(C(F)(F)F)c2)CC1 | 0.889
CCOC(=O)Cn1c(=NC(=O)c2cccs2)sc2cc(C(=O)OC)ccc21 | -0.0251
O=c1cc(CN2CCN(c3ccc(F)cc3)CC2)c2cc3c(cc2o1)CCCC3 | 0.252
COC(=O)C1=C(NC(=O)c2ccc(C)cc2)CCS1 | -0.18
CCC(C)N(C)Cc1cccc(C2(O)CCN(S(=O)(=O)c3ccc(F)cc3)CC2)c1 (centres undefined) | -0.276
CC(C)N(C(=O)COC(=O)CNC(=O)c1ccc(Br)cc1)c1ccccc1 | -0.48
COc1ccc(N2C(=O)CCC(C(=O)O)C2c2ccc(OC)c(OC)c2)cc1 (centres undefined) | -0.179
C=CCNC(=O)C(=O)c1cccn1-c1ccsc1C(=O)OC | -0.198
COc1ccccc1/C=C/C=N/n1c(-c2ccc(C)cc2)n[nH]c1=S | -0.218
COCCN1C(=O)c2oc3cc(C)c(C)cc3c(=O)c2C1c1ccc(O)cc1 (centres undefined) | -1.06
O=c1c2cnn(-c3ccccc3)c2ncn1Cc1cccnc1 | 0.48
N#Cc1ccc(-c2ccc(OCC(=O)NCCc3ccccc3)cc2)cc1 | -0.352
CCOC(=O)C(C)c1n[nH]c(=O)c2ccccc12 (centres undefined) | 0.11
CC(C)C12CN3CC(C(C)C)(CN(C1)C3c1ccccc1)C2O (centres undefined) | -0.338
COc1ccc(/C=C/C(=O)c2ccc(O)cc2)cc1COc1ccc(F)cc1 | -0.0504
